The supplement of paper PMC8728848
The list shows a part of the results.

Tests used:
Assay in all cases: glycan array binding signal (z-score within array); higher = stronger binding
Conditions in all cases: glycan notation: IUPAC condensed, linker removed
[1] = target: Fuc(a1-2)Gal6S(b1-3)GlcNAc6S
In short: (§1)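 From the Consortium for Functional Glycomics database, 3228 arrays were curated, keeping only those whose protein sequence was available. Binding is given as a within-array Z-score averaged across arrays sharing a protein sequence and across linkers. Negative Z-scores can be read as non-binding.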

Fuc(a1-2)Gal6S(b1-4)Glc = target: Fuc(a1-2)Gal6S(b1-4)Glc
In short: as §1

[2] = target: Fuc(a1-2)Gal6S(b1-4)Glc6S
In short: as §1

Fuc(a1-2)[Gal(a1-3)]Gal = target: Fuc(a1-2)[Gal(a1-3)]Gal
In short: as §1

[3] = target: Fuc(a1-2)[Gal(a1-3)]Gal(b1-3)GalNAc
In short: as §1

[4] = target: Fuc(a1-2)[Gal(a1-3)]Gal(b1-3)GalNAc(b1-3)Gal(a1-4)Gal(b1-4)Glc
In short: as §1

[5] = target: Fuc(a1-2)[Gal(a1-3)]Gal(b1-3)GlcNAc
In short: as §1

[6] = target: Fuc(a1-2)[Gal(a1-3)]Gal(b1-3)GlcNAc(b1-2)Man(a1-3)[Fuc(a1-2)[Gal(a1-3)]Gal(b1-3)GlcNAc(b1-2)Man(a1-6)]Man(b1-4)GlcNAc(b1-4)GlcNAc
In short: as §1

[7] = target: Fuc(a1-2)[Gal(a1-3)]Gal(b1-3)GlcNAc(b1-2)Man(a1-3)[Fuc(a1-2)[Gal(a1-3)]Gal(b1-3)GlcNAc(b1-2)Man(a1-6)]Man(b1-4)GlcNAc(b1-4)[Fuc(a1-6)]GlcNAc
In short: as §1

[8] = target: Fuc(a1-2)[Gal(a1-3)]Gal(b1-3)GlcNAc(b1-3)GalNAc
In short: as §1

[9] = target: Fuc(a1-2)[Gal(a1-3)]Gal(b1-3)GlcNAc(b1-6)GalNAc
In short: as §1

[10] = target: Fuc(a1-2)[Gal(a1-3)]Gal(b1-4)Glc
In short: as §1

[11] = target: Fuc(a1-2)[Gal(a1-3)]Gal(b1-4)GlcNAc
In short: as §1

[12] = target: Fuc(a1-2)[Gal(a1-3)]Gal(b1-4)GlcNAc(b1-2)Man
In short: as §1

[13] = target: Fuc(a1-2)[Gal(a1-3)]Gal(b1-4)GlcNAc(b1-2)Man(a1-3)[Fuc(a1-2)[Gal(a1-3)]Gal(b1-4)GlcNAc(b1-2)Man(a1-6)]Man(b1-4)GlcNAc(b1-4)GlcNAc
In short: as §1

[14] = target: Fuc(a1-2)[Gal(a1-3)]Gal(b1-4)GlcNAc(b1-2)Man(a1-3)[Fuc(a1-2)[Gal(a1-3)]Gal(b1-4)GlcNAc(b1-2)Man(a1-6)]Man(b1-4)GlcNAc(b1-4)[Fuc(a1-6)]GlcNAc
In short: as §1

[15] = target: Fuc(a1-2)[Gal(a1-3)]Gal(b1-4)GlcNAc(b1-3)GalNAc
In short: as §1

[16] = target: Fuc(a1-2)[Gal(a1-3)]Gal(b1-4)GlcNAc(b1-3)[Fuc(a1-2)[Gal(a1-3)]Gal(b1-4)GlcNAc(b1-6)]GalNAc
In short: as §1

[17] = target: Fuc(a1-2)[Gal(a1-3)]Gal(b1-4)GlcNAc(b1-6)GalNAc
In short: as §1

[18] = target: Fuc(a1-2)[Gal(a1-3)]Gal(b1-4)[Fuc(a1-3)]Glc
In short: as §1

[19] = target: Fuc(a1-2)[Gal(a1-3)]Gal(b1-4)[Fuc(a1-3)]GlcNAc
In short: as §1

[20] = target: Fuc(a1-2)[Gal(a1-3)]Gal(b1-4)[Fuc(a1-3)]GlcNAc(b1-3)GalNAc
In short: as §1

[21] = target: Fuc(a1-2)[Gal(a1-4)]Gal(b1-4)GlcNAc
In short: as §1

[22] = target: Fuc(a1-2)[GalNAc(a1-3)]Gal
In short: as §1

[23] = target: Fuc(a1-2)[GalNAc(a1-3)]Gal(b1-3)GalNAc(a1-3)[Fuc(a1-2)]Gal(b1-4)GlcNAc
In short: as §1

[24] = target: Fuc(a1-2)[GalNAc(a1-3)]Gal(b1-3)GalNAc(b1-3)Gal(a1-4)Gal(b1-4)Glc
In short: as §1

[25] = target: Fuc(a1-2)[GalNAc(a1-3)]Gal(b1-3)GlcNAc
In short: as §1

[26] = target: Fuc(a1-2)[GalNAc(a1-3)]Gal(b1-3)GlcNAc(b1-2)Man(a1-3)[Fuc(a1-2)[GalNAc(a1-3)]Gal(b1-3)GlcNAc(b1-2)Man(a1-6)]Man(b1-4)GlcNAc(b1-4)GlcNAc
In short: as §1

[27] = target: Fuc(a1-2)[GalNAc(a1-3)]Gal(b1-3)GlcNAc(b1-2)Man(a1-3)[Fuc(a1-2)[GalNAc(a1-3)]Gal(b1-3)GlcNAc(b1-2)Man(a1-6)]Man(b1-4)GlcNAc(b1-4)[Fuc(a1-6)]GlcNAc
In short: as §1

[28] = target: Fuc(a1-2)[GalNAc(a1-3)]Gal(b1-3)GlcNAc(b1-3)GalNAc
In short: as §1

[29] = target: Fuc(a1-2)[GalNAc(a1-3)]Gal(b1-3)GlcNAc(b1-6)GalNAc
In short: as §1

[30] = target: Fuc(a1-2)[GalNAc(a1-3)]Gal(b1-4)Glc
In short: as §1

[31] = target: Fuc(a1-2)[GalNAc(a1-3)]Gal(b1-4)GlcNAc
In short: as §1

[32] = target: Fuc(a1-2)[GalNAc(a1-3)]Gal(b1-4)GlcNAc(b1-2)Man
In short: as §1

[33] = target: Fuc(a1-2)[GalNAc(a1-3)]Gal(b1-4)GlcNAc(b1-2)Man(a1-3)[Fuc(a1-2)[GalNAc(a1-3)]Gal(b1-4)GlcNAc(b1-2)Man(a1-6)]Man(b1-4)GlcNAc(b1-4)GlcNAc
In short: as §1

[34] = target: Fuc(a1-2)[GalNAc(a1-3)]Gal(b1-4)GlcNAc(b1-2)Man(a1-3)[Fuc(a1-2)[GalNAc(a1-3)]Gal(b1-4)GlcNAc(b1-2)Man(a1-6)]Man(b1-4)GlcNAc(b1-4)[Fuc(a1-6)]GlcNAc
In short: as §1

[35] = target: Fuc(a1-2)[GalNAc(a1-3)]Gal(b1-4)GlcNAc(b1-3)Gal(b1-4)GlcNAc
In short: as §1

[36] = target: Fuc(a1-2)[GalNAc(a1-3)]Gal(b1-4)GlcNAc(b1-3)Gal(b1-4)GlcNAc(b1-3)Gal(b1-4)GlcNAc
In short: as §1

[37] = target: Fuc(a1-2)[GalNAc(a1-3)]Gal(b1-4)GlcNAc(b1-3)GalNAc
In short: as §1

[38] = target: Fuc(a1-2)[GalNAc(a1-3)]Gal(b1-4)GlcNAc(b1-3)[Fuc(a1-2)[GalNAc(a1-3)]Gal(b1-4)GlcNAc(b1-6)]GalNAc
In short: as §1

[39] = target: Fuc(a1-2)[GalNAc(a1-3)]Gal(b1-4)GlcNAc(b1-6)GalNAc
In short: as §1

[40] = target: Fuc(a1-2)[GalNAc(a1-3)]Gal(b1-4)[Fuc(a1-3)]GlcNAc
In short: as §1

[41] = target: Fuc(a1-2)[GalNAc(a1-3)]Gal(b1-4)[Fuc(a1-3)]GlcNAc(b1-3)GalNAc
In short: as §1

[42] = target: Fuc(a1-2)[GalNAc(a1-4)]Gal(b1-4)GlcNAc
In short: as §1

[43] = target: Fuc(a1-2)[GalNAc(b1-3)]Gal
In short: as §1

B1: RBMC2 (Vibrio cholerae) (protein)
chain: KISVRSGFAIDAIGASASTLVGGTGGNLNAAVNVKDIKAIDLTWGKYYWGGYHLLALDFRMSNGSVISMGSKNYAYSKQTERFTVPAGSRIKGIKAWTAGWLLDGVQFELA
glycan array binding signal (z-score) [1]: -0.121
glycan array binding signal (z-score) (Fuc(a1-2)Gal6S(b1-4)Glc): -0.38
glycan array binding signal (z-score) [2]: -0.398
glycan array binding signal (z-score) (Fuc(a1-2)[Gal(a1-3)]Gal): -0.326
glycan array binding signal (z-score) [3]: -0.353
glycan array binding signal (z-score) [4]: -0.396
glycan array binding signal (z-score) [5]: -0.409
glycan array binding signal (z-score) [6]: 0
glycan array binding signal (z-score) [7]: -0.367
glycan array binding signal (z-score) [8]: -0.278
glycan array binding signal (z-score) [9]: -0.122
glycan array binding signal (z-score) [10]: -0.428
glycan array binding signal (z-score) [11]: -0.444
glycan array binding signal (z-score) [12]: -0.275
glycan array binding signal (z-score) [13]: 0.631
glycan array binding signal (z-score) [14]: -0.015
glycan array binding signal (z-score) [15]: -0.249
glycan array binding signal (z-score) [16]: 0.162
glycan array binding signal (z-score) [17]: -0.369
glycan array binding signal (z-score) [18]: -0.432
glycan array binding signal (z-score) [19]: -0.339
glycan array binding signal (z-score) [20]: -0.301
glycan array binding signal (z-score) [21]: -0.391
glycan array binding signal (z-score) [22]: -0.265
glycan array binding signal (z-score) [23]: -0.357
glycan array binding signal (z-score) [24]: -0.183
glycan array binding signal (z-score) [25]: -0.306
glycan array binding signal (z-score) [26]: -0.316
glycan array binding signal (z-score) [27]: -0.287
glycan array binding signal (z-score) [28]: -0.328
glycan array binding signal (z-score) [29]: -0.361
glycan array binding signal (z-score) [30]: -0.35
glycan array binding signal (z-score) [31]: -0.402
glycan array binding signal (z-score) [32]: -0.44
glycan array binding signal (z-score) [33]: 0.184
glycan array binding signal (z-score) [34]: -0.035
glycan array binding signal (z-score) [35]: -0.171
glycan array binding signal (z-score) [36]: -0.282
glycan array binding signal (z-score) [37]: -0.327
glycan array binding signal (z-score) [38]: -0.308
glycan array binding signal (z-score) [39]: -0.46
glycan array binding signal (z-score) [40]: -0.4
glycan array binding signal (z-score) [41]: -0.136
glycan array binding signal (z-score) [42]: -0.416
glycan array binding signal (z-score) [43]: -0.141
